± gives the standard deviation. The full ranking holds about 3,700 sequences; the median of “pre-steady-state target cleavage rate” is about 0.02, and the highest 2% start at about 0.23. The list shows a part of the results, in another mix than the full data.
Each sequence was assayed on MILI (PIWIL2) piRISC loaded with Kctd7 piRNA (26 nt) (assay: pre-steady-state target cleavage rate (min^-1); MIWI and MILI are mouse PIWI proteins and EfPiwi is from a freshwater sponge; tags in brackets are library labels; higher = faster piRNA-guided slicing of the target). Conditions: guide: Kctd7 piRNA 5'p-UGUUAAUCUCUCAGAGAAGGUGACAG; auxiliary factor: 500 nM mouse GTSF1.
Outline: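 In Cleave-'n-Seq, a transcribed, DNA-blocked target RNA library (0.1 nM) was combined with 1 nM active affinity-purified piRISC bearing one synthetic guide, with or without 500 nM GTSF1 partner protein. Reactions ran in HEPES–potassium acetate buffer at 33 °C for 0–8 or 0–960 min. Uncleaved targets were sequenced and normalised to depth and to weakly complementary targets, three trials were pooled, and k3 was capped at 0.0001 min^-1. The pre-steady-state cleavage rate was obtained by fitting a burst-and-steady-state model.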

Sequence | pre-steady-state target cleavage rate
UAGUGACAGUGGUUCUCUAGAGAUUAACA | < 0.0001
UAGUGACAGACCUUCUCUCAGAGAUUAUCA | 0.0125 ± 0.0038
UAGUGACAGUGCUUGUCUGAGAGUUUAACA | 0.00883 ± 0.0039
UAGUGACAGUCCUUCCCUGAGAGAUUAACA | 0.0297 ± 0.0076
UAGUGAGUCAGGUUCUCUGAGAGAUUAAGA | 0.0194 ± 0.0076
UAGUCUGUCACCCUUCUCUGAGAGAUUAACA | 0.143 ± 0.014
UAGUGACUCACGUUCACUGAGAGAUUAACA | 0.175 ± 0.015
UAGUGACACAGCUUCUCAGAGAGAUUAACA | 0.0231 ± 0.0064
UAGUGUGACACCUUCUCUGACAGAUUAACA | 0.0418 ± 0.0083
UAGUCUGUCACCUUCUCUGAGAGAUAAACA | 0.132 ± 0.022
UAGUGACUCACCUUCACUGAGAGAAUAACA | 0.01 ± 0.0071
UAGUCUGUCACCUUUCUCUGAGAGAUUAACA | 0.198 ± 0.015
UAGUCUGUCACGCUUCUCUGAGAGAUUAACA | 0.102 ± 0.0067
UAGUGACACACGUUCUCUGAGAGUUUAACA | 0.0435 ± 0.0063
UAGUGACAGACCUUCUGUGUGAGAUUAACA | 0.022 ± 0.0066
UAGUGACAGUGGCUCUCUGAGAGAUUAACA | 0.00558 ± 0.002
UAGUGACAGACCUUCUCUGAGAGAUAUAACA | 0.0752 ± 0.013
UAGUGACAGUGCUUCUCUGAGAGAUUAAACA | 0.0397 ± 0.0072
UAGUGACAGUCCUGUCUCUGAGAGAUUAACA | 0.0462 ± 0.0043
UAGUGACAGUCGUUCUCUGAGAGAUUAACA | 0.0564 ± 0.0099
UAGUCUGCACCUUCUCUGAGAGAUUAACA | 0.182 ± 0.012
UAGUGACACACCUUCUCUCAGUGAUUAACA | 0.00607 ± 0.0036
UAGUGACACACCUUCAGUGAGAGAUUAUGA | 0.0159 ± 0.0068
UAGUGACUCACAUUCUCUGAGAGAUUAACA | 0.0809 ± 0.0069

Sequence | pre-steady-state target cleavage rate
UAGUGACAGUCGAUCUCUGAGAGAUUAACA | 0.00942 ± 0.0016
UAGUGUGUCACCUUCUCUGAGAGCUUAACA | 0.173 ± 0.022
UAGUGACUCACCUUCUCUCAGAGAUAAACA | 0.0125 ± 0.0052
UAGUCUGUCACCUUCUCUGAGAGGAUUAACA | 0.174 ± 0.019
UAGUCUGUCACCUUCUCUGAGAGAUAUACA | 0.0896 ± 0.023
UAGUCUGUCACCUUCACAGAGAGAUUAACA | 0.0761 ± 0.0083
UAGUGUGUCACCUUCUGCUGAGAGAUUAACA | 0.127 ± 0.029
UAGUCUGUCACCUUCACUGAGAGUUUAACA | 0.141 ± 0.032
UAGUGUGUCACCUUCAGUGAGAGAUUUUGA | 0.0129 ± 0.0057
UAGUGUGUCACCUACUCUGUGAGAUUAACA | 0.0442 ± 0.0059
UAGUGAGUCACCUUCUGUGAGAGAUUUUGA | 0.00801 ± 0.0063
UAGUGACAGUGCUUGUCUGAGAGAUUAACA | 0.0469 ± 0.0093
UAGUGUGUCACCUUCUCUGAGAGAUUAUGA | 0.0812 ± 0.019
UAGUGAGUCACCUUCUCUGAGUCUUUAACA | 0.00784 ± 0.0059
UAGUGUUUCACCUUCUCUGAGAGAUUAACA | 0.176 ± 0.015
UAGUGUGUGACCUUCUCUGAGAGAAUAACA | 0.0833 ± 0.022
UAGUGUGACACCUUCUCUGAGAGAUAAACA | 0.124 ± 0.039
UAGUGACAGUGCUUCUCUGAGAUGAUUAACA | 0.0139 ± 0.0031
UAGUGAGUCACCUUGUCUGAGAGAUAAACA | 0.0145 ± 0.0061
UAGUGACUCACCUUCUCUCACAGAUUAACA | 0.00531 ± 0.0044
UAGUGACUCACCAUCUCUGAGAGAUUAACA | 0.112 ± 0.0064
UAGUGACAGUCGUUCUCUGAGAGAUUAUCA | 0.00789 ± 0.0033
UAGUCUGUCACGUUCUCUGAGAGAUUAACA | 0.191 ± 0.0084
UAGUGACAGACCUUCUGAGAGAGAUUAACA | 0.0179 ± 0.0066

Sequence | pre-steady-state target cleavage rate
UAGUGAGUGCACCUUCUCUGAGAGAUUAACA | 0.163 ± 0.017
UAGUCUGUCACGUUCUCUGUGAGAUUAACA | 0.034 ± 0.0027
UAGUCUGUCACCUUCUCACAGAGAUUAACA | 0.034 ± 0.01
UAGUGACACAUCUUCUCUGAGAGAUUAACA | 0.191 ± 0.0091
UAGUGACUCACCUUCAUCUGAGAGAUUAACA | 0.0219 ± 0.0075
UAGUCUGACACCUUGUCUGAGAGAUUAACA | 0.0846 ± 0.0099
UAGUGACAGUCCUUCUCCGAGAGAUUAACA | 0.0139 ± 0.0061
UAGUCUGUCACCUUCUCUCAGAGAUUAUCA | 0.0396 ± 0.012
UAGUGACAGUGGAAGAGUGAGAGUAUAACA | < 0.0001
UAGUGAGUCACGUUCUCUGACAGAUUAACA | 0.0319 ± 0.0055
UAGUGACAGUGGAAGUCUGUGACAUUAACA | < 0.0001
UAGUCUGCUCACCUUCUCUGAGAGAUUAACA | 0.198 ± 0.011
UAGUGUGUCACGAACUCUGAGAGAUAUUGA | < 0.0001
UAGUGACAGUGGUUCUCUGAGUCUUUAACA | < 0.0001
UAGUGACAGUCCUCCUCUGAGAGAUUAACA | 0.0807 ± 0.0063
UAGUGACAGUCCUUCUCUGAGAGAAUAUGA | < 0.0001
UAGUGACAGACCUACUCUGAGAGAUUUACA | 0.0238 ± 0.0093
UAGUCUGUGCACCUUCUCUGAGAGAUUAACA | 0.143 ± 0.016
UAGUGUGUCACCUUCUCUGAGUAGAUUAACA | 0.0159 ± 0.007
UAGUGACAGACCUUCUCUGAGAGAUAUACA | 0.0167 ± 0.0063
UAGUGACUCACGUUCUCAGAGAGAUUAACA | 0.0591 ± 0.0053
UAGUGACAGACCUUCUCUGAGAGAGUUAACA | 0.133 ± 0.027
UAGUCUGUCACCUUCUCUGAAAGAUUAACA | 0.0788 ± 0.0062
UAGUGACAGUCCUUGUCAGAGAGAUUAACA | 0.00758 ± 0.0035
